Experimental data published in publication PMC5855953.
Results are given in words; binding and its absence hold for the method and conditions named. Binding seen in cells or lysates may run through a third protein. Some binding calls cover weakened binding; strength is not graded here.

Protein sequences, listed by entry. Tags and fused reporters are not part of them.
UniProt A1ZAW0: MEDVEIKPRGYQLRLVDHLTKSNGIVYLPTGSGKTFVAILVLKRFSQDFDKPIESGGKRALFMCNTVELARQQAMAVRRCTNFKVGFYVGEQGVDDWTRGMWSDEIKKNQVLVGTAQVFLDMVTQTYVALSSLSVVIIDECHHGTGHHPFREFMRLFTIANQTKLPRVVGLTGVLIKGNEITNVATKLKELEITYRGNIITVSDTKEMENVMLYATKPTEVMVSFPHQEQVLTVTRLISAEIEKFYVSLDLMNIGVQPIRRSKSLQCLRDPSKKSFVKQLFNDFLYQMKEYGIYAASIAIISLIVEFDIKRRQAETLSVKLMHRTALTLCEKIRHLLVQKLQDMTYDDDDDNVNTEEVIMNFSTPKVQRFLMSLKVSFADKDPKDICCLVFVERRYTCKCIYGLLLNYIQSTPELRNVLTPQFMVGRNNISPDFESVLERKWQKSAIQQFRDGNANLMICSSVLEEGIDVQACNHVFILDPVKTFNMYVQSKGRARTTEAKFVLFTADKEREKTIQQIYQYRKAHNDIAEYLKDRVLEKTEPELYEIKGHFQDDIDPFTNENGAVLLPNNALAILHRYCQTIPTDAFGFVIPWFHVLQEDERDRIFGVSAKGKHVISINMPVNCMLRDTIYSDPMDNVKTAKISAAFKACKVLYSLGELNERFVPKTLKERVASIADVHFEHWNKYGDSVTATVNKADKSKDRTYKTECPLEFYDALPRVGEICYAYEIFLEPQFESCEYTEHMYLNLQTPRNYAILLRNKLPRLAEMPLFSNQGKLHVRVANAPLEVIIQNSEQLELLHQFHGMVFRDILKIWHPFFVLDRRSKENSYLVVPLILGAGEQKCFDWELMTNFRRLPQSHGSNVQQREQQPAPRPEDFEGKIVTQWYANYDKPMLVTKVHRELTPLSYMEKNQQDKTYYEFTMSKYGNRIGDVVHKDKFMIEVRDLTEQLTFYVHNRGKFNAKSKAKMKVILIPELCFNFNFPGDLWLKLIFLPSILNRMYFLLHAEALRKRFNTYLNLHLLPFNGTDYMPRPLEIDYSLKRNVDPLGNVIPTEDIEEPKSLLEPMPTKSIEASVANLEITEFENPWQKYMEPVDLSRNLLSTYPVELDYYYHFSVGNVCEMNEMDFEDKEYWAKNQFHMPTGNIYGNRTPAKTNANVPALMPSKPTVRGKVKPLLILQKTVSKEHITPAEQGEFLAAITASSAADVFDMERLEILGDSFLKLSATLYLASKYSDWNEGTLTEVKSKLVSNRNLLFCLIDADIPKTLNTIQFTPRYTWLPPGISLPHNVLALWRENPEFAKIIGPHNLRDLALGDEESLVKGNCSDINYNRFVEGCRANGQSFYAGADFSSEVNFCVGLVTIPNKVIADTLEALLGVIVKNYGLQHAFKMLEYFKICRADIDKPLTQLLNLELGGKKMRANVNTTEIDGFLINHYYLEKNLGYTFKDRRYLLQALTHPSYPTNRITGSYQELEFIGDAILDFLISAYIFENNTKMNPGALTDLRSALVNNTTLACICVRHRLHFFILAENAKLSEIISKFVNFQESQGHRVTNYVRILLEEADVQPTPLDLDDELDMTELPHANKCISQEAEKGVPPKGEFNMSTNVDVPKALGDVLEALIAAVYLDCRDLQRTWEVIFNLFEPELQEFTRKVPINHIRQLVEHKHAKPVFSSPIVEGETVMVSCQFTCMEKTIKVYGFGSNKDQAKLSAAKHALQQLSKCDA

T1: Wispy (Drosophila melanogaster (endogenous in 90 min embryos)) (UniProt Q9VYS4)
T1 sequence: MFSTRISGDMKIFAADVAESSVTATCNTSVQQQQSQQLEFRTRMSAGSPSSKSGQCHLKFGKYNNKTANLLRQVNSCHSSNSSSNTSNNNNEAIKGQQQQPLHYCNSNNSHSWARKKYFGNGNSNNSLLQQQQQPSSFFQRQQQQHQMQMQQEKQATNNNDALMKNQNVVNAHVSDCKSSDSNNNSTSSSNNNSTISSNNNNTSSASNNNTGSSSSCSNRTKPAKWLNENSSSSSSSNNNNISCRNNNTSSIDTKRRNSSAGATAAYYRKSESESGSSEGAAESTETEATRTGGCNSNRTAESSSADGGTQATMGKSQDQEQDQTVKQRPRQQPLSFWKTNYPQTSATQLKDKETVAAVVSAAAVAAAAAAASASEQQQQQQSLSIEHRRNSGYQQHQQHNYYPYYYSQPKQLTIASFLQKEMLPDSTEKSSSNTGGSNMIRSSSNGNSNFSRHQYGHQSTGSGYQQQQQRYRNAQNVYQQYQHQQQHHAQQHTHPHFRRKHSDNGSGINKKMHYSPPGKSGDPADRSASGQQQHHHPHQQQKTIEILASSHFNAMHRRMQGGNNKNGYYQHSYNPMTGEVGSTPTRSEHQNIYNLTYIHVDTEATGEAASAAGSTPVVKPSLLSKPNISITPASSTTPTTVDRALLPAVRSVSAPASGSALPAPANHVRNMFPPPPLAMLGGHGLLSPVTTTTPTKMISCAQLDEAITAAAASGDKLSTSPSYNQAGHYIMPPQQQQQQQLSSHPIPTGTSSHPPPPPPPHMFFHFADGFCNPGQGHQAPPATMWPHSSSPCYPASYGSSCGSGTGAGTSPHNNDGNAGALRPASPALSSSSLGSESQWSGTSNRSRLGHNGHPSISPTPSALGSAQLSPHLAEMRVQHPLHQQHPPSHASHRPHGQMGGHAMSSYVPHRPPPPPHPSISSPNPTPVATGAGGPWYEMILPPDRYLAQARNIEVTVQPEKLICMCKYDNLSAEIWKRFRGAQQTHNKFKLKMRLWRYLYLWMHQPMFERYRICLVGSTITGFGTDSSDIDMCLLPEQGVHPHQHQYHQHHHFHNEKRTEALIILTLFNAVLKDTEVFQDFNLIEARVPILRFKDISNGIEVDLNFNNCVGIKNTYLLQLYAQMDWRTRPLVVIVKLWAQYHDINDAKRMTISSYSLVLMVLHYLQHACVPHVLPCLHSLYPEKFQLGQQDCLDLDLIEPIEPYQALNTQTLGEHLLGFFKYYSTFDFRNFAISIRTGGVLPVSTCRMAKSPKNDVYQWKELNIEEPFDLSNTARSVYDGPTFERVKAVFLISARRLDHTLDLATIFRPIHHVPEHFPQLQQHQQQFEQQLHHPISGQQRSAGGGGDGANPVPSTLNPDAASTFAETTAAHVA

B1: Wispy (enzyme, UniProt Q9VYS4 1-1373)
chain: MFSTRISGDMKIFAADVAESSVTATCNTSVQQQQSQQLEFRTRMSAGSPSSKSGQCHLKFGKYNNKTANLLRQVNSCHSSNSSSNTSNNNNEAIKGQQQQPLHYCNSNNSHSWARKKYFGNGNSNNSLLQQQQQPSSFFQRQQQQHQMQMQQEKQATNNNDALMKNQNVVNAHVSDCKSSDSNNNSTSSSNNNSTISSNNNNTSSASNNNTGSSSSCSNRTKPAKWLNENSSSSSSSNNNNISCRNNNTSSIDTKRRNSSAGATAAYYRKSESESGSSEGAAESTETEATRTGGCNSNRTAESSSADGGTQATMGKSQDQEQDQTVKQRPRQQPLSFWKTNYPQTSATQLKDKETVAAVVSAAAVAAAAAAASASEQQQQQQSLSIEHRRNSGYQQHQQHNYYPYYYSQPKQLTIASFLQKEMLPDSTEKSSSNTGGSNMIRSSSNGNSNFSRHQYGHQSTGSGYQQQQQRYRNAQNVYQQYQHQQQHHAQQHTHPHFRRKHSDNGSGINKKMHYSPPGKSGDPADRSASGQQQHHHPHQQQKTIEILASSHFNAMHRRMQGGNNKNGYYQHSYNPMTGEVGSTPTRSEHQNIYNLTYIHVDTEATGEAASAAGSTPVVKPSLLSKPNISITPASSTTPTTVDRALLPAVRSVSAPASGSALPAPANHVRNMFPPPPLAMLGGHGLLSPVTTTTPTKMISCAQLDEAITAAAASGDKLSTSPSYNQAGHYIMPPQQQQQQQLSSHPIPTGTSSHPPPPPPPHMFFHFADGFCNPGQGHQAPPATMWPHSSSPCYPASYGSSCGSGTGAGTSPHNNDGNAGALRPASPALSSSSLGSESQWSGTSNRSRLGHNGHPSISPTPSALGSAQLSPHLAEMRVQHPLHQQHPPSHASHRPHGQMGGHAMSSYVPHRPPPPPHPSISSPNPTPVATGAGGPWYEMILPPDRYLAQARNIEVTVQPEKLICMCKYDNLSAEIWKRFRGAQQTHNKFKLKMRLWRYLYLWMHQPMFERYRICLVGSTITGFGTDSSDIDMCLLPEQGVHPHQHQYHQHHHFHNEKRTEALIILTLFNAVLKDTEVFQDFNLIEARVPILRFKDISNGIEVDLNFNNCVGIKNTYLLQLYAQMDWRTRPLVVIVKLWAQYHDINDAKRMTISSYSLVLMVLHYLQHACVPHVLPCLHSLYPEKFQLGQQDCLDLDLIEPIEPYQALNTQTLGEHLLGFFKYYSTFDFRNFAISIRTGGVLPVSTCRMAKSPKNDVYQWKELNIEEPFDLSNTARSVYDGPTFERVKAVFLISARRLDHTLDLATIFRPIHHVPEHFPQLQQHQQQFEQQLHHPISGQQRSAGGGGDGANPVPSTLNPDAASTFAETTAAHVA
B2: UNR (protein, UniProt B7Z0E2 1-1039)
chain: MNTQSKVYRTGEEIYDNLPCDSYFNMNAIRNLGIPTTFPTIGTFTLDSTTLGLQPQGQGPSPQQQQHQQQQQQQQQQHQQNMHHHQHQQQHMQQQQQQQQHQQQHQQQQHQQQQQHQQQQQQQQQHPTIGMFDANEVNDVIQNPPQIGVFQSNSVLTNGAGSGSSIFGSQSSNSSAAAADPSQTTRETGIIEKLLHSYGFIQCCERQARLFFHFSQFSGNIDHLKIGDPVEFEMTYDRRTGKPIASQVSKIAPEVVLSEERVTGTVTTELRTDSANNVLNSSETTGRISYENRGECFFLPYTKDDVEGNVNLRAGDKVSFQIATNQRGNLGACHIRLENPAQPVKYRGVVCSMKESFGFIERADVVKEIFFHFSEAEGNVELRPGDDVEFTIQTRSSASVPPQGREFACNITRLAPGSVIFEDVDSTVYKGQVLKSLDRNNPVRQNNDPLPGRIRYRALDYSEVEVPFGDKDQKGDFTLRHGDWVQFLLATDRRDQLQRATSIALLDETFKVSGEKREQGTIASLKEGFGFLRCVERQARLFFHFTEVLDTSREIDINDEVEFTVIQEPGLAYNNSRLQAIRIKHLPPNSVQFETLVASNIEGCVTREAPKSPIKSQDRVEGGVITYEHADVKKTIMYFLKDCEKPPRIGERVRFDIYMVKRNKECIAVNVQQVSLHQQQQQQQQQLHLNQSNAGANINQNDQLGGLSNGISSSSSNASLQNGYVMHGSPGGSTSSVGSNNPVHLDEFKMENNNHAGSDAGQVYRGFIAVMKENFGFIETLSHDEEVFFHFSNYMGNPNWLELGQEVEYTLARNGNTSVSGNCLPAENVRMLPKNSIPQPAVLETTHNGVVARPLRCINPDQQEYAGLIEILDELRTTVISQHEFGITSLVNKRDLLQKGDLVSFRIDESGRAACVNAVRQKKRATVDSIKGQFGFLNFEVEDGKKLFFHMSEVQGNTVALHPGDTVEFSVVTNQRNGKSSACNVLKINDRPDRLISRLKLNGDDTVPRLILIRAPKGPQGKGFSVLARHPRIPGNLVE
B3: Ago-2 (protein, UniProt Q9VUQ5 1-1214)
chain: MGKKDKNKKGGQDSAAAPQPQQQQKQQQQRQQQPQQLQQPQQLQQPQQLQQPQQQQQQQPHQQQQQSSRQQPSTSSGGSRASGFQQGGQQQKSQDAEGWTAQKKQGKQQVQGWTKQGQQGGHQQGRQGQDGGYQQRPPGQQQGGHQQGRQGQEGGYQQRPPGQQQGGHQQGRQGQEGGYQQRPSGQQQGGHQQGRQGQEGGYQQRPPGQQQGGHQQGRQGQEGGYQQRPSGQQQGGHQQGRQGQEGGYQQRPPGQQQGGHQQGRQGQEGGYQQRPPGQQQGGHEQGRQGQEGGYQQRPSGQQQGGHQQGRQGQEGGYQQRPSGQQQGGHQQGRQGQEGGYQQRPSGQQQGGHQQGRQGQEGGYQQRPPGQQPNQTQSQGQYQSRGPPQQQQAAPLPLPPQPAGSIKRGTIGKPGQVGINYLDLDLSKMPSVAYHYDVKIMPERPKKFYRQAFEQFRVDQLGGAVLAYDGKASCYSVDKLPLNSQNPEVTVTDRNGRTLRYTIEIKETGDSTIDLKSLTTYMNDRIFDKPMRAMQCVEVVLASPCHNKAIRVGRSFFKMSDPNNRHELDDGYEALVGLYQAFMLGDRPFLNVDISHKSFPISMPMIEYLERFSLKAKINNTTNLDYSRRFLEPFLRGINVVYTPPQSFQSAPRVYRVNGLSRAPASSETFEHDGKKVTIASYFHSRNYPLKFPQLHCLNVGSSIKSILLPIELCSIEEGQALNRKDGATQVANMIKYAATSTNVRKRKIMNLLQYFQHNLDPTISRFGIRIANDFIVVSTRVLSPPQVEYHSKRFTMVKNGSWRMDGMKFLEPKPKAHKCAVLYCDPRSGRKMNYTQLNDFGNLIISQGKAVNISLDSDVTYRPFTDDERSLDTIFADLKRSQHDLAIVIIPQFRISYDTIKQKAELQHGILTQCIKQFTVERKCNNQTIGNILLKINSKLNGINHKIKDDPRLPMMKNTMYIGADVTHPSPDQREIPSVVGVAASHDPYGASYNMQYRLQRGALEEIEDMFSITLEHLRVYKEYRNAYPDHIIYYRDGVSDGQFPKIKNEELRCIKQACDKVGCKPKICCVIVVKRHHTRFFPSGDVTTSNKFNNVDPGTVVDRTIVHPNEMQFFMVSHQAIQGTAKPTRYNVIENTGNLDIDLLQQLTYNLCHMFPRCNRSVSYPAPAYLAHLVAARGRVYLTGTNRFLDLKKEYAKRTIVPEFMKKNPMYFV
B4: R2D2 (protein, UniProt Q9VLW8 1-311)
chain: MDNKSAVSALQEFCARTQINLPTYSFIPGEDGGYVCKVELLEIEALGNGRSKRDAKHLAASNILRKIQLLPGIHGLMKDSTVGDLDEELTNLNRDMVKELRDYCVRREMPLPCIEVVQQSGTPSAPEFVACCSVASIVRYGKSDKKKDARQRAAIEMLALISSNSDNLRPDQMQVASTSKLKVVDMEESMEELEALRRKKFTTYWELKEAGSVDHTGMRLCDRHNYFKNFYPTLKKEAIEAINSDEYESSKDKAMDVMSSLKITPKISEVESSSLVPLLSVELNCAFDVVLMAKETDIYDHIIDYFRTMLI

biological target: Dicer-2 (Drosophila melanogaster (endogenous in 90 min embryos)) (UniProt A1ZAW0); test: co-IP; endogenous proteins; 150 µg Drosophila 90 min embryo extract with antibody on Protein A Dynabeads, 1 h at 4°C in 1× NET buffer (50 mM TRIS-HCl pH 7.5, 150 mM NaCl, 0.1% NP40, 1 mM EDTA); pellets treated or not with 10 µg RNase A; western blot; controls: dcr-2 null extract, nonspecific IgG

| Molecule | binding |
| --- | --- |
| B1 | binds |
| B2 | no binding |

biological target: T1, Wispy (Drosophila melanogaster (endogenous in 90 min embryos)); test: as above

| Molecule | binding |
| --- | --- |
| Dicer-2 (from UniProt A1ZAW0 1-1722) (enzyme) | binds |
| B3 | binds weakly |
| B2 | no binding |
| B4 | no binding |
